Among all 150,000 compounds or so, about 540 (0.36%) showed an effect of 50% or more. The list shows a part of the results.
Test system: Plasmodium falciparum
Test: Primary screen in NF54 nanoGlo assay, in single point, at 2uM, 72h; a lower Z score goes with more inhibition
Format: functional, Erythrocyte
Details: timepoint 72 hour

SMILES	% Inhibition [%]	Z score
C[C@H](NC(=O)c1ccc(-c2cc(Cl)cc(Cl)c2)s1)c1nncn1C	-5	0.51
O=C(N[C@@H](Cn1nccn1)c1ccccc1)c1ccncc1	-13	1.97
Cc1ccc(-c2cc3c(N4CC=C(c5ccccc5)CC4)nccn3n2)c(C)c1	38	-1.53
COC(C)(C)c1noc(Cc2c[nH]c3ccccc23)n1	30	-3.38
COc1ccc(C)cc1NC(=O)N1CC(c2nc(C(C)C)nn2C)C1	33	-4.47
Cc1cccc(-c2ccc(Cn3ccnc3)cn2)c1C	-8	0.98
CCn1cnnc1CNC(=O)c1cccnc1	-11	1.44
CC(C)(C)OC(=O)N[C@H]1CCN(CC(F)(F)F)C1	-4	0.47
Cc1cc(C(=O)N2CCc3[nH]cnc3[C@H]2c2ccncc2)nc(C)n1	-4	0.59
COc1cccc(C(=O)N2CCCN(c3cc(-c4ccccc4)n[nH]3)CC2)c1	-7	0.71
O=C(c1cccc2c1NCCC2)N1CCN(c2nc[nH]n2)CC1	-6	1.09
C[C@H]1CCCN(C(=O)c2nc3ccccn3c2-c2ccc(F)cc2)C1	-4	0.65
CCCN(CCC)CCNc1ncnc2onc(C)c12	-3	0.48
CC(C)[C@H](O)C(=O)N1CCc2onc(-c3ccc(F)c(F)c3)c2C1	-16	1.51
CN(CCc1ccccn1)Cc1cc(C(N)=O)cs1	-4	0.52
COC(=O)C1CN(C(=O)C2COCCO2)c2ccc(F)cc2O1 (stereo not drawn)	-9	1.1
O=C(c1ccsc1)N1CCO[C@H](c2ccccc2)C1	-6	0.73
Cc1cc(C(=O)N2CC[C@H](Cc3nc4cccnc4n3CC(C)C)C2)nn1C	-8	0.82
CCOc1ccc(-c2c[nH]c(-c3cccc(C(=O)OC)n3)n2)cc1	0	0.02
Cc1ncsc1CN(C)Cc1nncn1C	-20	2.53
CNCCCNC(=O)c1cnc(-c2cc(Cl)cc(Cl)c2)nc1O	-10	1.71
Cc1nsc(N(C)Cc2nc3ccccc3s2)n1	4	-0.55
Nc1c(C(=O)N2CCCCC2)sc2ncccc12	-13	1.61
CO[C@H]1[C@@H]2CC[C@H]1CN(Cc1cnc(NCc3ccccc3)nc1)C2	-2	0.27
N#CCS(=O)(=O)c1ccc(Br)cc1F	-18	2.01
CC[C@H](C)[C@H](NC(=O)c1cccc(NC(=O)OC)c1)C(=O)OC(C)(C)C	-7	0.8
COc1cc(OC)cc(C(=O)Nc2cc(C)c3nc(NS(=O)(=O)c4ccc(C)cc4)sc3c2)c1	10	-1.2

SMILES	% Inhibition [%]	Z score
CN(c1ccn(C)n1)S(=O)(=O)CCC1CCCCC1	-5	0.61
O=C(Nc1ccnn1Cc1cccc2ccccc12)C1CCC1	6	-0.71
CCC1(C(=O)NC)CCN(C(=O)c2cccc(-c3cccc(C#N)n3)c2)CC1	-14	1.99
Cc1noc(-c2cn(CCNC(=O)c3ccco3)nn2)n1	-12	1.71
COc1ccc([C@H]2N(C(=O)CN3CCCC3)CCCN2S(=O)(=O)c2ccc(C)cc2)cc1	-5	0.76
CCCNC(=O)COc1ccc2c(c1)[C@H](c1ccccc1)N(Cc1cccc(C)c1)CC2	-11	1.39
O=C1NCC2(CCN(c3nccc(N4CCC[C@H](O)C4)n3)CC2)O1	-1	0.14
O=C(COc1ccc2nc3n(c(=O)c2c1)CCC3)NCCc1nccs1	-6	0.65
Cc1csc([C@@H]2CN(C(=O)c3ccnc4c3nnn4C)CCO2)n1	-3	0.29
CC(=O)N1CCOc2c(O)cc(-c3ccc(Cl)cn3)cc2C1	-9	0.85
O=C(NCc1nc(-c2ccncc2)no1)[C@H]1CCC(F)(F)C1	-2	0.38
CC(=O)N(Cc1ccsc1)CC(F)(F)F	-7	1.12
COc1cc(C(=O)N2C[C@@H](CN3C[C@@H](C)O[C@@H](C)C3)[C@@H](CO)C2)ccn1	12	-1.59
CC[C@@H]1Oc2ccc(NC(=O)c3ccc(Cl)cc3)cc2CN(Cc2ccccc2Cl)C1=O	-10	1.28
COCCc1ccc(OS(=O)(=O)c2cccc3cncc(Br)c23)cc1	5	-0.53
COc1ccc2nc(C[C@@H]3C[C@@H](C(C)C)[C@H](CNC4CCN(C(C)=O)CC4)C=C3C)[nH]c2n1	13	-1.52
COCC(NC(=O)NC1CCCCC1OC)c1ccco1 (stereo not drawn)	12	-1.66
CC(C)CC1NC2(C(=O)N(Cc3ccc(F)cc3)c3ccccc32)C2C(=O)N(Cc3ccccc3)C(=O)C12 (stereo not drawn)	6	-0.72
O=C(Nc1nnc(COc2ccccc2)o1)c1ccccn1	0	-0.06
Cc1nc(CC(=O)N2CCn3c(C(N)=O)cnc3C2)c(C)s1	-13	1.76
O=C(Cc1ccc(CO)cc1)N1C[C@@H]2CC[C@@H](C2)C1	-7	1.24
Cc1nn(CC(C)C)c(Cl)c1CNC[C@@H](c1ccco1)N1CCCC1	-7	1.42
COc1cc(Cn2c(=O)cc(C(F)(F)F)[nH]c2=O)cc(OC)c1	-34	4.03
CC(C)CN(Cc1cccc(OS(=O)(=O)c2ccc(F)cc2)c1)C(=O)C1CCC1	-4	0.67
Cc1ncnc(C)c1C(=O)N[C@H]1CC=CC[C@@H]1C(N)=O	-2	0.33
CC(C)c1nccn1CC1CCCN1CC(=O)NC(C)c1ccco1 (stereo not drawn)	-11	1.53
Cc1cc2n(n1)CCC(=O)N2CCCC(=O)NCc1ccccc1Cl	3	-0.26
